{"source": "PubChem BioAssay AID463173", "about": "(ICCB-Longwood Screening Facility, Harvard Medical School, 2010)", "note": "The whole screen tested about 52,000 compounds, of which about 4,300 (8.3%) were called active. Cut-off read from the data, not from the text of the source: active = survival mostly below about 52% (no sharp cut-off); inactive = mostly above about 56%. The list shows a part of the results."}
{"tested_on": "DeltatarO mutant", "assay": "S. aureus survival, RN4220 and DeltatarO strains – OD600, teichoic acid synthesis inhibitors, primary screen (AID 463173)", "settings": "S. aureus RN4220 wild type/DeltatarO growth, OD600, 18 h, stronger effect = lower value, screened at 18.75 µg/mL (by protocol)"}
{"molecule": "CC(=O)c1cccc(-n2c(=O)c3c4c(sc3n(CC(=O)c3ccc(Cl)cc3)c2=O)CN(C(C)=O)CC4)c1", "survival": "inactive: 82%"}
{"molecule": "CC1CCCCN1C(=O)CSc1n[nH]c(-c2ccccc2)n1", "note": "(centres undefined)", "survival": "inactive: 85%"}
{"molecule": "Cc1cccc(C(=O)N(Cc2ccco2)Cc2ccccc2F)c1", "survival": "inactive: 102%"}
{"molecule": "N#Cc1ccccc1Cn1c(SCC(=O)Nc2ccc(F)cc2)nc2ccccc21", "survival": "inactive: 94%"}
{"molecule": "O=C(COc1ccccc1)Nc1ccc2nc(SCC(=O)N3CCc4ccccc43)sc2c1", "survival": "inactive: 62%"}
{"molecule": "Cn1cnc(S(=O)(=O)N2CCC(C(=O)Nc3ccc(C#N)cc3)CC2)c1", "survival": "inactive: 107%"}
{"molecule": "Clc1cccc(N2CCN(c3c4c(nc5nncn35)CCC4)CC2)c1", "survival": "inactive: 98%"}
{"molecule": "CC(=O)c1ccc(NC(=O)c2nc(-c3ccccc3)n(-c3ccccc3Cl)n2)cc1", "survival": "inactive: 64%"}
{"molecule": "COc1ccc(CNCCCSc2nnnn2C)c(OC)c1", "survival": "inactive: 89%"}
{"molecule": "c1ccc(-c2cnnn2-c2ccccc2)cc1", "survival": "inactive: 87%"}
{"molecule": "CCc1nnc(SCc2ccc(F)cc2Cl)c2cc3sc(C)cc3n12", "survival": "inactive: 87%"}
{"molecule": "COc1ccc(NC(=O)C2CCC(CNS(=O)(=O)c3ccc4c(c3)C(C)(C)C(=O)N4C)CC2)cc1", "note": "(centres undefined)", "survival": "inactive: 54%"}
{"molecule": "CCOc1ccc(Nc2ncnc3c2nc2n3CCCCC2)cc1", "survival": "inactive: 126%"}
{"molecule": "O=C(NCc1ccc2c(c1)OCO2)C1CCN(c2ccc(S(=O)(=O)N3CCCC3)cc2)CC1", "survival": "inactive: 72%"}
{"molecule": "O=C(Nc1nnc(S(=O)(=O)N2CCCCCC2)s1)c1cccc(Br)c1", "survival": "active: 9%"}
{"molecule": "Cc1ccc(-c2noc(-c3ccc(N4CCCCC4C)c([N+](=O)[O-])c3)n2)cc1", "note": "(centres undefined)", "survival": "inactive: 78%"}
{"molecule": "COc1cc2oc(=O)c(CC(=O)NCc3ccc(OC)c(OC)c3)c(C)c2cc1Cl", "survival": "inactive: 71%"}
{"molecule": "CCCCn1c(=O)c2oc3ccccc3c2n(Cc2cccc(C)c2)c1=O", "survival": "inactive: 57%"}
{"molecule": "Cc1c(C(=O)Nc2ccc(-c3nc4cc(Cl)ccc4o3)cc2)oc2ccccc12", "survival": "inactive: 104%"}
{"molecule": "Cc1c(Cl)cccc1NC(=O)c1cc2sccc2n1Cc1ccc(F)cc1", "survival": "inactive: 89%"}
{"molecule": "COc1ccc(N(C)C(=O)c2nc(-c3cccc(F)c3)n3c2CCCCC3)c(OC)c1", "survival": "inactive: 74%"}
{"molecule": "CC(C)(C)n1nnnc1C(c1cccnc1)N(Cc1ccccc1)Cc1ccco1", "note": "(centres undefined)", "survival": "inactive: 89%"}
{"molecule": "CCOC(=O)c1ccccc1NC(=O)c1ccc2c(Cl)c3c(nc2c1)CCC3", "survival": "inactive: 96%"}
{"molecule": "Cc1nn(CC(=O)NCC(C)c2ccccc2)c(=O)c2cc3ccccc3n12", "note": "(centres undefined)", "survival": "inactive: 77%"}
{"molecule": "CCOc1ccc(CNC(=O)C2CCN(S(=O)(=O)c3ccc4c(ccn4C)c3)CC2)cc1", "survival": "inactive: 101%"}
{"molecule": "Clc1ccc(-n2ccc3ccccc32)cc1", "survival": "inactive: 95%"}
{"molecule": "CC(C)OC(=O)/C(C#N)=C\\c1cccn1C", "survival": "inactive: 73%"}
{"molecule": "N#CCNC(=O)c1cccc(I)c1", "survival": "inactive: 89%"}
{"molecule": "COc1cccc(Cn2c(=O)cc(C)c3c(C)nn(-c4ccc(C)cc4)c32)c1", "survival": "inactive: 85%"}
{"molecule": "CCOc1ccc(NC(=O)CN2CCN(C3CCCCC3)C(=O)C2=O)cc1", "survival": "inactive: 62%"}
{"molecule": "Cc1ccc(S(=O)(=O)N2CCc3cc(C(=O)NCCc4ccccc4)ccc32)cc1", "survival": "inactive: 104%"}
{"molecule": "Cc1ccc(-c2cc(-c3coc4ccccc4c3=O)c3c(n2)-c2ccccc2OC3)cc1", "survival": "inactive: 72%"}
{"molecule": "Cc1c(-c2cccc(NC(=O)Nc3ccccc3)c2)nc2ncccn12", "survival": "inactive: 76%"}
{"molecule": "Cc1cc(-c2ccc(S(=O)(=O)NCc3ccccc3Cl)s2)on1", "survival": "inactive: 128%"}
{"molecule": "N#Cc1ccc2c(c1)nc1c3cccc4cccc(c(=O)n21)c43", "survival": "inactive: 72%"}
{"molecule": "CCS(=O)(=O)N1CCC2(CC1)OC(=O)C(C)=C2C(=O)NCc1ccccc1C", "survival": "inactive: 81%"}
{"molecule": "CCCN(CCC)C1=CC(=O)C(C(C)(C)C)=CC1=O", "survival": "inactive: 103%"}
{"molecule": "Cc1c(Cl)cccc1NC(=O)c1ccc2nc(C(C)C)oc2c1", "survival": "inactive: 80%"}
{"molecule": "C=CCn1c(SCC(=O)O)nnc1-c1ccco1", "survival": "inactive: 108%"}
{"molecule": "COC(=O)c1nnn(CC(=O)NC(=O)Nc2ccccc2F)c1C(=O)OC", "survival": "inactive: 82%"}
{"molecule": "Cc1ccc(OCc2nnc(SCC(=O)CC(=O)Nc3ccccc3)o2)cc1", "survival": "inactive: 87%"}
{"molecule": "Cc1noc(NS(=O)(=O)c2ccc(NC(=O)c3ccc(Br)cc3)cc2)c1C", "survival": "inactive: 74%"}
{"molecule": "Cc1c(-c2ccccc2)nc2ccccc2c1C(=O)O", "survival": "inactive: 95%"}
{"molecule": "O=C(CSc1nc2ccccc2nc1Cc1ccccc1)N1CCN(c2ccccc2)CC1", "survival": "inactive: 77%"}
{"molecule": "Cc1cccc(NC(=O)NCCOCCn2c(=O)oc3ccccc32)c1C", "survival": "inactive: 99%"}
{"molecule": "O=C(O)CN=C1NC2(CCCC2)Cc2ccccc21", "survival": "inactive: 114%"}
{"molecule": "CC(=O)Nc1cc(-c2ccccc2)nn1Cc1cccc(Cl)c1", "survival": "inactive: 57%"}
{"molecule": "CCN1CCC(N(Cc2ccc(F)cc2)C(=O)Nc2cccc(C(F)(F)F)c2)CC1", "survival": "inactive: 99%"}
{"molecule": "Cc1ccc(-c2cc(C(=O)N3CCCC3)no2)cc1", "survival": "inactive: 98%"}
{"molecule": "CCc1ccccc1Nc1nn2c(=O)c3ccc(C(=O)Nc4ccc(OC)cc4)cc3nc2s1", "survival": "inactive: 69%"}
{"molecule": "CC(C)n1c(SCC(=O)N(Cc2ccccc2)C(C)(C)C)nc2c1c(=O)n(C)c(=O)n2C", "survival": "inactive: 83%"}
{"molecule": "COc1ccccc1C(=O)Nc1cc(-c2ccc(C)cc2)no1", "survival": "inactive: 49%"}
{"molecule": "COc1ccc(CCNC(=O)CCc2c(C)c3cc4c(C)coc4cc3oc2=O)cc1", "survival": "inactive: 85%"}
{"molecule": "OC(COc1ccc2ccccc2c1)Cn1ccnc1", "note": "(centres undefined)", "survival": "inactive: 70%"}
{"molecule": "Cc1ccc(Cl)cc1NC(=O)CCCN1C(=O)CCn2nc(-c3cn(C)c4ccccc34)cc21", "survival": "inactive: 108%"}
{"molecule": "CCOc1ccc(CCNC(=O)CCn2c(=O)c3cccn3c3cccnc32)cc1", "survival": "inactive: 89%"}
{"molecule": "COc1ccc(CCC(=O)NCc2nc3cccnc3n2Cc2ccccc2)cc1", "survival": "inactive: 88%"}
{"molecule": "CC1Cc2cc(S(=O)(=O)CCC(=O)Nc3ccc(Cl)cc3F)ccc2N1C(=O)C1CC1", "note": "(centres undefined)", "survival": "inactive: 102%"}
{"molecule": "CC(C)Oc1ccc(C(=O)Nc2ccc(-c3nc4ccccc4s3)cc2)cc1", "survival": "inactive: 79%"}
{"molecule": "COc1ccc(-c2nnn(CCC(=O)O)n2)cc1", "survival": "inactive: 92%"}
{"molecule": "CCc1ccccc1NC(=O)C1CCN(S(=O)(=O)c2cc(OC)ccc2OC)CC1", "survival": "inactive: 102%"}
{"molecule": "Cc1ccc(NC(=O)Cn2c(=O)oc3cc(S(=O)(=O)N4CCC(C)CC4)ccc32)cc1Cl", "survival": "inactive: 126%"}
{"molecule": "Cc1cc(NC(=O)N2CCC(CN3CCOCC3)CC2)ccc1Br", "survival": "inactive: 86%"}
{"molecule": "COc1cccc(C2C(=O)N(C3CCCCC3)CC(=O)N2Cc2ccc(Cl)cc2)c1", "note": "(centres undefined)", "survival": "inactive: 94%"}
{"molecule": "CCNc1nc(Oc2ccc(=O)n(-c3ccccc3)n2)nc(N(C)C)n1", "survival": "inactive: 84%"}
{"molecule": "COc1cccc(-c2nc3c(c(C)nn3-c3ccccc3)c3cc(OC)c(OC)cc23)c1", "survival": "inactive: 59%"}
{"molecule": "CCc1ccc(C2C(C(=O)Nc3ccc(Cl)cc3)=C(C)Nc3ncnn32)cc1", "note": "(centres undefined)", "survival": "inactive: 36%"}
{"molecule": "Cc1ccc2c(c1)C(=O)OC(C(=O)Nc1ncc(Cc3ccccc3)s1)C2", "note": "(centres undefined)", "survival": "inactive: 93%"}
{"molecule": "CCC(=O)Nc1ccccc1-c1nc2ccccc2n(C(C)C(=O)Nc2ccc(OC)cc2)c1=O", "note": "(centres undefined)", "survival": "inactive: 55%"}
{"molecule": "CN(c1ccccc1)c1ncnc2c1cnn2C", "survival": "inactive: 82%"}
{"molecule": "Cc1ccc(S(=O)(=O)Nc2cccc(-c3ccc(N4CCCCC4)nn3)c2)s1", "survival": "inactive: 76%"}
{"molecule": "CCOC(=O)C(C)Sc1nnc2ccc3ccccc3n12", "note": "(centres undefined)", "survival": "inactive: 86%"}
{"molecule": "O=C(OCCN1CCCCC1)c1cc2ccccc2o1", "survival": "inactive: 85%"}
{"molecule": "Cc1ccc(NC(=O)C(=O)NCc2ccc(Cl)cc2)cc1", "survival": "inactive: 94%"}
{"molecule": "O=C(NCCc1ccc(Cl)cc1)c1ccc(CSCc2ccccc2Cl)o1", "survival": "inactive: 78%"}
{"molecule": "Cc1cccc(NC(=O)C2CCCN(S(=O)(=O)c3cccc4nonc34)C2)c1", "note": "(centres undefined)", "survival": "inactive: 92%"}
{"molecule": "CC(=O)c1cccc(NC(=O)c2nc(-c3ccc(C)cc3)n3c2CCCCC3)c1", "survival": "active: 34%"}
{"molecule": "CCn1c(SCC#N)nnc1-c1cccc(C)c1", "survival": "inactive: 96%"}
{"molecule": "CCOc1ccccc1C(=O)NCc1ccc2c(c1)CCN2C(C)=O", "survival": "inactive: 86%"}
{"molecule": "Cc1ccc(C2c3[nH]c4ccccc4c3CCN2C(=O)Nc2ccc(C)c(C)c2)cc1", "note": "(centres undefined)", "survival": "inactive: 62%"}
{"molecule": "Nc1ncnc2nc(SCC(=O)O)[nH]c12", "survival": "inactive: 86%"}
{"molecule": "Cc1ccc(CNCc2c(C(=O)O)n(Cc3ccccc3C)c3cc(C)ccc23)cc1", "survival": "inactive: 67%"}
{"molecule": "O=C(Cn1c(=O)sc2ccccc21)Nc1cccc(Cl)c1", "survival": "inactive: 83%"}
{"molecule": "CCCCNC(=O)c1[nH]c2ccccc2c1Sc1ccc(C)cc1", "survival": "inactive: 75%"}
{"molecule": "COc1cc(OC)c(NC(=O)CCn2cnc3onc(-c4ccc(F)cc4)c3c2=O)cc1Cl", "survival": "inactive: 72%"}
{"molecule": "CCOc1ccc(NC(=O)N(Cc2c[nH]c3ccccc23)C2CCCCC2)cc1", "survival": "inactive: 74%"}
{"molecule": "Cc1oc(-c2cccc(Cl)c2)nc1CN1CCC(C(=O)NCCCN2CCN(c3cccc(Cl)c3)CC2)CC1", "survival": "inactive: 63%"}
{"molecule": "Nc1cc(=O)nc(SCC(=O)Nc2ccc(F)cc2)n1-c1ccc(Cl)cc1", "survival": "inactive: 88%"}
{"molecule": "Cc1ccc(C)c(-c2csc(-c3c(N)c(C(=O)c4ccc5c(c4)OCO5)n4ccccc34)n2)c1", "survival": "inactive: 105%"}
{"molecule": "CCN(CC)CCNC(=O)C1CCCN(c2ncnc3onc(C)c23)C1", "note": "(centres undefined)", "survival": "inactive: 78%"}
{"molecule": "Cc1c(C(N)=O)nnn1-c1ccc(Br)cc1", "survival": "inactive: 95%"}
{"molecule": "COc1ccc(CCNC(=O)Cn2ncc3c(C)n(Cc4ccccc4F)c(C)c3c2=O)cc1OC", "survival": "inactive: 83%"}
{"molecule": "COc1ccc(CCNC(=O)Cn2nc(C)n3c(cc4occc43)c2=O)cc1OC", "survival": "inactive: 84%"}
{"molecule": "CCOC(=O)c1c(S(=O)(=O)N2CCCC(C(=O)N3CCN(c4ccc(F)cc4)CC3)C2)c(C)n(C)c1C", "note": "(centres undefined)", "survival": "inactive: 81%"}
